Test results published in PubChem BioAssay AID651820 (National Center for Advancing Translational Sciences (NCATS), 2012).
Hit rate of the full screen: of about 340,000 compounds, about 12,000 (3.5%) were called active. The shares of active, inactive and inconclusive entries below differ from those in the screen. Calls come from the whole dose curve; as a rule, active = well fitted inhibition curve with a large enough effect; inconclusive = small, poorly fitted or top-dose-only effect, or another doubt; inactive = no such curve, though single readings can be large or run the other way. Potencies of inconclusive entries are left out as doubtful fits.

assay: qHTS Assay for Inhibitors of Hepatitis C Virus (HCV); settings: Huh7.5.1 HCVcc-Cre (HCVcc is cell-culture hepatitis C virus) infection, luciferase reporter, 44 h; activity change, negative = inhibition: at 41.8 µM (top of the series) unless noted
How it was run: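 Luciferase read-out (15 sec integration) after a 15 min room-temperature substrate step quantifies HCVcc-Cre infection. Cells, 1,000 per well, had compound added 4 h post-plating, then virus at ~0.5 moi, and were cultured 44 h.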
% is set by controls: 0 for no effect and ±100 for the full control effect; potency is the fitted concentration of half-maximal effect; tags give direction and shape of the fitted curve.

SMILES | Potency | activity change, negative = inhibition
CC(C)Cc1nc(Nc2ccc(S(=O)(=O)N3CCCC3)cc2)c2nnn(Cc3ccccc3)c2n1 | inconclusive [inhibitor, partial curve] | –
O=C(COc1ccc2ccccc2c1)N1CCN(C2CCN(Cc3ccccc3)CC2)CC1 | inconclusive [inhibitor, partial curve] | –
COC(=O)c1cc(Cl)c(NC(=O)c2ccco2)cc1OC | inconclusive [inhibitor, single point] | –
CCCCN(CC)CCCNC(=O)c1cc2c(=O)[nH]c3ccccc3c2s1 | inconclusive [inhibitor, partial curve, poor fit] | –
Cc1ccc(C(N)=Nc2ccccc2)cc1 | – | inactive: 3.97%
Cc1cc2nc(-c3ccc(NC(=O)C(C)C)cc3)oc2cc1C | inconclusive [inhibitor, single point] | –
CCN(CC)c1ccc(NC(=O)c2ccc(Br)o2)c(C)c1 | inconclusive [inhibitor, partial curve, poor fit] | –
CCOC(=O)C1CCN(c2cc3c(cc2NC(=O)c2ccccc2F)n(C)c(=O)n3C)CC1 | active: 11.2 µM | –
CCC(C)N(C(=O)CSc1ncnc2c1cnn2-c1ccccc1)C1CCS(=O)(=O)C1 (stereo not given) | active: 14.1 µM | –
CCOc1ccc(CCNC(=O)COC(=O)c2ccncc2)cc1OCC | – | inactive: 18.6%
COc1ccc(NC2=NCC(Cc3ccc(Br)cc3)S2)cc1 (stereo not given) | inconclusive [inhibitor, partial curve, poor fit] | –
CC1=C(C(=O)OCC(C)C)C(c2cc3c(cc2Br)OCO3)NC(=O)N1C (stereo not given) | inconclusive [inhibitor, single point] | –
COc1cc(-c2noc(-c3ccco3)n2)cc(OC)c1OC | active: 12.6 µM | –
COC(=O)Cn1c(=N)n(CCN2CCCCC2)c2ccccc21 | – | inactive: 13.8%
Nc1nonc1-n1nnc(C(=O)N/N=C/c2ccc(OCc3ccc(F)cc3)cc2)c1COc1ccccc1 | inconclusive [inhibitor, full curve] | –
Cc1cccc(N2CCN(c3cccc(C)c3)C2c2cccnc2)c1 | inconclusive [inhibitor, single point] | –
COc1ccc(NC2=Nc3ccccc3N3C2=Nc2c(c(C)nn2-c2ccc(C)cc2)C3c2cccnc2)cc1 (stereo not given) | inconclusive [inhibitor, partial curve] | –
Cc1cc(C)c(NS(=O)(=O)c2ccccc2)c(C)c1NS(=O)(=O)c1ccccc1 | inconclusive [inhibitor, partial curve, poor fit] | –
CC(NC(=O)Nc1cccnc1)(C(F)(F)F)C(F)(F)F | – | inactive: 2.49%
Cc1ccc(S(=O)(=O)N2CCC(C(=O)OCC(=O)N(C)Cc3ccccc3)CC2)cc1C | – | inactive: 18.6%
Cn1cccc1C(=O)NC(=O)COC(=O)CCNS(=O)(=O)c1cccc(C(F)(F)F)c1 | – | inactive: 9.93%
CN(C)CCCn1c(=O)n(CCc2ccccc2)c(=O)c2c3c(sc21)CCCCC3 | – | inactive: 7.2%
CCn1c(N2CCN(C(=S)Nc3ccc(OC)cc3)CC2)nc2ccccc21 | inconclusive [inhibitor, partial curve] | –
CC(C)C[C@H]1CNC(=S)N1CC1CCCN1C[C@H](Cc1ccccc1)N1C[C@H](Cc2ccc(O)cc2)N(CC2CCCCC2)C1=S (stereo not given in full) | active: 10 µM | –

SMILES | Potency | activity change, negative = inhibition
COC(=O)c1c(C)oc2ccc(NS(=O)(=O)c3cc(OC)ccc3OC)cc12 | – | inactive: 1.22%
O=C(CN1C(=O)/C(=C/c2ccccc2)SC1=S)N1CCN(CCc2ccccn2)CC1 | inconclusive [inhibitor, partial curve] | –
Cc1nc(NCCN2CCOCC2)c2oc3ccccc3c2n1 | – | inactive: -2.64%
COc1cccc(-c2sc3ccccc3c2-c2ccc(OCCN3CCOCC3)cc2)c1 | inconclusive [inhibitor, single point] | –
O=C1NC2(CCCc3ccccc32)C(=O)N1CCOc1ccc(Br)cc1 (stereo not given) | inconclusive [inhibitor, single point] | –
O=C(Nc1ccc(S(=O)(=O)N2CCCCC2)cc1)c1ccc(F)cc1 | inconclusive [inhibitor, single point] | –
CC(C)(C)NC(=O)C(c1ccco1)N(C(=O)Cn1nnc(-c2ccc(F)cc2)n1)c1ccccc1F (stereo not given) | inconclusive [inhibitor, single point] | –
CCOC(=O)c1cc(-c2ccccc2)n(CC(=O)Nc2ccc(OC)c(OC)c2)c1C | – | inactive: -26.5%
COc1ccc(C2CCCN2CC(O)COc2ccccc2C(C)C)cc1 (stereo not given) | inconclusive [inhibitor, single point] | –
Cc1cc(NC(=O)c2c(F)c(F)c(F)c(F)c2F)no1 | inconclusive [inhibitor, single point] | –
O=C(COc1ccc(Cl)cc1Cl)NNC(=S)NC(=O)c1ccco1 | – | inactive: -11.8%
N#C/C(=C\c1ccccc1)c1ccccn1 | – | inactive: 9.23%
CCOc1ccccc1OCCCOc1ccc(C)cc1Br | – | inactive: -26.8%
O=c1c2ccccc2[nH]c(=S)n1CCN1CCc2ccccc2C1 | inconclusive [inhibitor, single point] | –
Cc1cccc(N=C2NC(=O)/C(=C/c3cccn3C)S2)c1C | inconclusive [inhibitor, partial curve] | –
Cc1cc(C)cc(NC(=S)/C(=C(\[O-])c2ccc(Cl)cc2Cl)[n+]2ccccc2)c1 | – | inactive: -6.42%
CCC[N+]1(CC#CCC(c2ccccc2)c2ccccc2)CCCCC1 | inconclusive [inhibitor, single point] | –
COc1ccc(OC)c(-n2c(O)c(C=NCc3ccc4c(c3)OCO4)c(=O)[nH]c2=O)c1 | – | inactive: 10.4%
CCOc1cc(CNCc2ccccn2)ccc1OCC(=O)NC(C)(C)C | inconclusive [inhibitor, partial curve, poor fit] | –
Cc1c(C)c2ccc(OCC(=O)Nc3cccnc3)cc2oc1=O | inconclusive [inhibitor, single point] | –
Cc1nn(Cc2c(F)c(F)c(F)c(F)c2F)c(C)c1NC(=O)c1ccc(COc2ccccc2Cl)o1 | active: 15.8 µM | –
CC1CCN(C(=O)c2ccc(-c3ccccc3Cl)o2)CC1 | inconclusive [inhibitor, single point] | –
Cc1ccc(N(CC(O)CON=C2c3ccccc3-c3ccccc32)S(C)(=O)=O)cc1 (stereo not given) | inconclusive [inhibitor, partial curve] | –
COc1ccc2nc(C)cc(Nc3ccccc3O)c2c1 | inconclusive [inhibitor, single point] | –

SMILES | Potency | activity change, negative = inhibition
C/C(CC(=O)Nc1ccc(C)c(Cl)c1)=N\NC(=O)C1CCCCC1 | inconclusive [inhibitor, full curve, poor fit] | –
CN(C)S(=O)(=O)c1ccc(C(=O)OCC(=O)NCc2ccccc2)cc1 | – | inactive: 8.03%
COc1ccc2nc(NC(=O)c3cccc(-c4cc5ccccc5oc4=O)c3)sc2c1 | active: 11.2 µM | –
O=C(N/N=C/c1ccc(O)cc1)c1cc(-c2ccccc2)nc2ccccc12 | – | inactive: -14.1%
CCOC(=O)c1ccccc1NC(=O)COC(=O)CCC(=O)c1ccc(C)cc1 | inconclusive [inhibitor, single point] | –
CCC(C)(C)n1nnnc1C(c1ccc(C)cc1)N(Cc1ccco1)Cc1cccs1 (stereo not given) | inconclusive [inhibitor, partial curve] | –
CCOC(=O)N1CCN(S(=O)(=O)c2cc(OCC(=O)NC3CCCCC3)c(C)cc2Cl)CC1 | – | inactive: 5.9%
Cc1cc(C(=O)NC2CCCCC2)on1 | – | inactive: 7.67%
Cc1ccc(SCc2c(-c3ccccc3)nn(C)c2Cl)cc1 | inconclusive [inhibitor, partial curve] | –
C/C(=N\NC(=S)Nc1c(C)cccc1C)c1cc2ccccc2o1 | inconclusive [inhibitor, single point] | –
COc1ccc(Cl)cc1NC(=O)NCc1cccnc1 | inconclusive [inhibitor, single point] | –
CN(C)CCCN(C(=O)c1cc(Cl)sc1Cl)c1nc2cc3c(cc2s1)OCO3 | inconclusive [inhibitor, single point] | –
CN(C)CCCNc1nc(N)c([N+](=O)[O-])c(NCc2ccccc2)n1 | inconclusive [inhibitor, single point] | –
Cc1ccccc1NC(=O)Cn1c(C)nc2ccc(N)cc2c1=O | – | inactive: 0.837%
CN1C(=O)c2ccc(N3CCCC3)cc2C1=O | inconclusive [inhibitor, single point] | –
O=C(C1CCN(Cc2cccs2)CC1)N1CCN(Cc2ccc3c(c2)OCO3)CC1 | inconclusive [inhibitor, partial curve] | –
Cc1ccc(C)c(-c2cc(C(=O)NCc3cccs3)c3ccccc3n2)c1 | active: 12.6 µM | –
O=C(O)CSc1cc(NS(=O)(=O)c2ccc(Br)cc2)c2ccccc2c1O | inconclusive [inhibitor, single point] | –
CC(OC(=O)C1CCN(S(=O)(=O)c2ccccc2C(F)(F)F)CC1)C(=O)N(C)Cc1ccccc1 (stereo not given) | inconclusive [inhibitor, single point] | –
COc1cc(OC)cc(C(=O)Nc2nc(CC(=O)NC(C)c3ccccc3)cs2)c1 (stereo not given) | inconclusive [inhibitor, single point] | –
O=C(Nc1ccc(N2CCOCC2)cc1N1CCOCC1)c1ncoc1-c1cccc(F)c1 | inconclusive [inhibitor, single point] | –
CCC1(c2ccc(F)cc2)NC(=O)N(CC(=O)Nc2cc(S(=O)(=O)N(C)C)ccc2Cl)C1=O (stereo not given) | inconclusive [inhibitor, single point] | –
